From patent publication US20110060124A1, “HLA-BINDING PEPTIDES, PRECURSORS THEREOF, DNA FRAGMENTS AND RECOMBINANT VECTORS THAT CODE FOR THOSE PEPTIDE SEQUENCES” (priority 2004, published 2011) come the findings set out here.

Molecules are shown by their SMILES. Peptide text beside a SMILES is read from it.

The target of this assay is HLA-A2 type molecule, product of the HLA-A*0201 gene (Homo sapiens, UniProt P04439, D140Y/D185E/D98H/E176V/E277Q/G131W/G231S/I119V/I121R/I166T/I218V/L300P/L318F/N151K/N90K/P208A/P217A/Q86G/Q94H/R138H/R169H/T345S). In words: biochemical.
For the molecule `CC(C)C[C@H](NC(=O)[C@@H](N)CCCCN)C(=O)N[C@@H](CC(C)C)C(=O)N1CCC[C@H]1C(=O)N[C@@H](CCCNC(=N)N)C(=O)N[C@@H](CC(C)C)C(=O)N1CCC[C@H]1C(=O)NCC(=O)N[C@H](C(=O)O)C(C)C` [compound 124] (H-KLLPRLPGV-OH), the Kd (as a rule, a measure of binding affinity in units of concentration) is 196 nM. Next, `CC[C@H](C)[C@H](NC(=O)[C@H](C)N)C(=O)N[C@@H](CC(C)C)C(=O)N[C@@H](CO)C(=O)N1CCC[C@H]1C(=O)NCC(=O)N[C@@H](C)C(=O)N[C@@H](CC(C)C)C(=O)N[C@H](C(=O)O)C(C)C` [compound 131] (H-AILSPGALV-OH): 571 nM; `CC[C@H](C)[C@H](NC(=O)[C@H](CC(C)C)NC(=O)[C@@H](N)CO)C(=O)N[C@@H](CCCNC(=N)N)C(=O)N[C@H](C(=O)N1CCC[C@H]1C(=O)N[C@@H](Cc1ccc(O)cc1)C(=O)N[C@@H](Cc1ccccc1)C(=O)N[C@H](C(=O)O)C(C)C)C(C)C` [compound 132] (H-SLIRVPYFV-OH): 1370 nM; `CC[C@H](C)[C@H](NC(=O)[C@H](Cc1c[nH]c2ccccc12)NC(=O)[C@H](CC(=O)O)NC(=O)[C@H](Cc1c[nH]c2ccccc12)NC(=O)[C@@H](NC(=O)[C@@H](N)CC(=O)O)C(C)C)C(=O)N[C@@H](CS)C(=O)N[C@H](C(=O)N[C@H](C(=O)O)C(C)C)[C@@H](C)O` [compound 133] (H-DVWDWICTV-OH): 10500 nM. The result for `CC[C@H](C)[C@H](NC(=O)[C@@H](N)C(C)C)C(=O)N1CCC[C@H]1C(=O)N[C@@H](C)C(=O)N[C@@H](CO)C(=O)NCC(=O)N[C@@H](CC(=O)O)C(=O)N[C@H](C(=O)N[C@H](C(=O)O)C(C)C)C(C)C` [compound 134] (H-VIPASGDVV-OH) reads 574 nM; that for `CC(C)C[C@H](NC(=O)[C@H](C)NC(=O)[C@@H](N)CCCNC(=N)N)C(=O)N[C@@H](C)C(=O)N[C@@H](Cc1c[nH]cn1)C(=O)NCC(=O)N[C@H](C(=O)N[C@@H](CCCNC(=N)N)C(=O)N[C@H](C(=O)O)C(C)C)C(C)C` [compound 135] (H-RALAHGVRV-OH), 5200 nM. Next, `CC(C)C[C@H](N)C(=O)N[C@@H](CO)C(=O)N[C@@H](CC(=O)O)C(=O)NCC(=O)N[C@@H](CO)C(=O)N[C@@H](Cc1c[nH]c2ccccc12)C(=O)N[C@@H](CO)C(=O)N[C@H](C(=O)N[C@H](C(=O)O)C(C)C)[C@@H](C)O` [compound 136] (H-LSDGSWSTV-OH): 598 nM; `CC[C@H](C)[C@H](NC(=O)[C@H](CCC(=O)O)NC(=O)CNC(=O)[C@@H]1CCCN1C(=O)[C@H](CO)NC(=O)[C@@H](N)Cc1ccc(O)cc1)C(=O)N[C@@H](CC(N)=O)C(=O)N[C@@H](CCCNC(=N)N)C(=O)N[C@H](C(=O)O)C(C)C` [compound 141] (H-YSPGEINRV-OH): 889 nM.

Turning to `CC(C)C[C@H](NC(=O)[C@H](CC(=O)O)NC(=O)[C@H](CCC(N)=O)NC(=O)[C@H](CC(=O)O)NC(=O)[C@@H](NC(=O)[C@H](CC(N)=O)NC(=O)[C@@H](NC(=O)[C@@H](N)Cc1ccc(O)cc1)[C@@H](C)O)C(C)C)C(=O)N[C@H](C(=O)O)C(C)C` [compound 142] (H-YTNVDQDLV-OH), the Kd was 2100 nM. Next, `CSCC[C@H](NC(=O)[C@@H](N)CS)C(=O)N[C@@H](CO)C(=O)N[C@@H](C)C(=O)N[C@@H](CC(=O)O)C(=O)N[C@@H](CC(C)C)C(=O)N[C@@H](CCC(=O)O)C(=O)N[C@H](C(=O)N[C@H](C(=O)O)C(C)C)C(C)C` [compound 146] (H-CMSADLEVV-OH): 15500 nM.

`CC[C@H](C)[C@H](NC(=O)[C@H](CC(C)C)NC(=O)[C@H](CO)NC(=O)[C@H](C)NC(=O)[C@H](CCC(N)=O)NC(=O)[C@H](CC(C)C)NC(=O)[C@@H](N)C(C)C)C(=O)N[C@@H](CCCNC(=N)N)C(=O)N[C@H](C(=O)O)C(C)C` [compound 149] (H-VLQASLIRV-OH) showed a Kd of 3440 nM. Against the preceding molecule, the Kd is about 4.5-fold lower. Next, `CC(C)[C@H](NC(=O)[C@@H]1CCCN1C(=O)[C@H](C)NC(=O)[C@H](C)NC(=O)[C@H](C)NC(=O)[C@H](CCC(=O)O)NC(=O)[C@H](C)NC(=O)[C@H](CCC(N)=O)NC(=O)[C@@H](N)CCCCN)C(=O)O` [compound 150] (H-KQAEAAAPV-OH): 3840 nM; `CC(C)C[C@H](NC(=O)[C@@H](N)C(C)C)C(=O)N[C@@H](CC(=O)O)C(=O)N[C@@H](CC(=O)O)C(=O)N[C@@H](Cc1c[nH]cn1)C(=O)N[C@@H](Cc1ccc(O)cc1)C(=O)N[C@@H](CCCNC(=N)N)C(=O)N[C@@H](CC(=O)O)C(=O)N[C@H](C(=O)O)C(C)C` [compound 152] (H-VLDDHYRDV-OH): 308 nM. The result for `CC[C@H](C)[C@H](NC(=O)[C@@H](N)C(C)C)C(=O)N[C@@H](CC(C)C)C(=O)N[C@@H](CC(=O)O)C(=O)N[C@@H](CO)C(=O)N[C@@H](Cc1ccccc1)C(=O)N[C@@H](CCC(=O)O)C(=O)N1CCC[C@H]1C(=O)N[C@@H](CC(C)C)C(=O)O` [compound 162] (H-VILDSFEPL-OH) reads 4100 nM; that for `CC(C)C[C@H](NC(=O)[C@H](Cc1c[nH]c2ccccc12)NC(=O)[C@@H](NC(=O)[C@H](CCCCN)NC(=O)[C@H](Cc1ccccc1)NC(=O)[C@H](CC(=O)O)NC(=O)[C@H](C)NC(=O)[C@H](CC(C)C)NC(=O)[C@@H](N)C(C)C)[C@@H](C)O)C(=O)O` [compound 170] (H-VLADFKTWL-OH), 962 nM; that for `CC[C@H](C)[C@H](NC(=O)[C@H](Cc1c[nH]c2ccccc12)NC(=O)[C@H](CC(=O)O)NC(=O)[C@H](Cc1c[nH]c2ccccc12)NC(=O)[C@@H](NC(=O)[C@H](CC(=O)O)NC(=O)[C@H](CCCNC(=N)N)NC(=O)[C@H](CC(C)C)NC(=O)[C@@H](N)Cc1c[nH]c2ccccc12)C(C)C)C(=O)O` [compound 179] (H-WLRDVWDWI-OH), 2080 nM.
